About 18,000 (5.8%) of roughly 310,000 compounds were called active. The shares of active, inactive and inconclusive entries below differ from those in the screen. The call rests on the fitted dose curve; in most records, active means well fitted inhibition curve with a large enough effect; inconclusive means small, poorly fitted or top-dose-only effect, or another doubt; inactive means no such curve, though single readings can be large or run the other way. No potency is given beside an inconclusive call; the fits are too rough.
Assay: Primary qHTS for delayed death inhibitors of the malarial parasite plastid, 48 hour incubation
Conditions: P. falciparum luciferase growth in erythrocytes; series mostly up to 28.7 µM; activity change, negative = inhibition: at the top concentration
In short: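 Here the parasites carry a stable luciferase gene and grow inside erythrocytes in Albumax-based RPMI medium with compound for one erythrocytic cycle. Activity is scored as loss of luminescent signal.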
For `CCN(Cc1ccccc1)S(=O)(=O)c1ccc(C(=O)N(CCCN(C)C)c2nc3cc(C)cc(C)c3s2)cc1`, the Potency was inconclusive [inhibitor, single point]. With `COc1ccc(-c2cc3ccccc3cn2)cc1` the “activity change, negative = inhibition” value was inactive: 160%. In the case of `CCOC(=O)C(C)Sc1nnc(-c2ccccc2O)n1-c1ccc(C)cc1` (stereo not given), the Potency is reported as inconclusive [inhibitor, single point]. For `COc1ccc(C2=NOC(Cn3nc(C(=O)NCc4cccc(C(F)(F)F)c4)cc3-c3ccccc3)C2)cc1` (stereo not given), the Potency was active: 4.65 µM. For `CC1(c2ccc(OC(F)F)cc2)NC(=O)N(CC(=O)N2c3ccccc3NC(=O)C2(C)C)C1=O` (stereo not given), the Potency was inconclusive [inhibitor, partial curve, poor fit]. For `COc1ccc(Cl)cc1NC(=O)C(=O)N/N=C/c1cc(C)n(-c2ccc(C)cc2)c1C`, the “activity change, negative = inhibition” value was inactive: -2.42%. For `O=C(NCC1CCCO1)c1ccc(Br)c(S(=O)(=O)N2CCOCC2)c1` (stereo not given), the Potency was inconclusive [inhibitor, partial curve]. In the case of `Cc1ccccc1Nc1nc(-c2sc(NC(=O)c3ccc([N+](=O)[O-])cc3)nc2C)cs1`, the Potency is reported as inconclusive [inhibitor, full curve]. In the case of `CCC(C)(C)n1nnnc1C(c1cc2cccc(C)c2[nH]c1=O)N1CCN(C(=O)c2ccco2)CC1` (stereo not given), the Potency is reported as active: 1.17 µM. For `O=C(O)CCN1C(=O)/C(=C\c2ccc(OCc3ccccc3)c(OCc3ccccc3)c2)SC1=S`, the Potency was inconclusive [inhibitor, full curve, poor fit]. In the case of `CN1C(=O)NC(c2ccc(O)cc2)C(C(=O)c2cccs2)C1(O)C(F)(F)F` (stereo not given), the Potency is reported as inconclusive [inhibitor, single point]. For `CN(c1cccc(NC(=O)CN(c2ccc(Cl)c(Cl)c2)S(=O)(=O)c2ccccc2)c1)S(C)(=O)=O`, the Potency was inconclusive [inhibitor, single point]. In the case of `COc1cc(NC(=O)CN2C(=O)NC(C)(CC(C)C)C2=O)cc(OC)c1` (stereo not given), the Potency is reported as inconclusive [inhibitor, partial curve, poor fit]. With `O=C(Nc1ccccc1)N(C1=NCCCCS1)c1cccc2ccccc12` the “activity change, negative = inhibition” value was inactive: 34.4%. With `CC(C)(C)NC(=O)[C@H]1CN(Cc2cccnc2)CCN1C[C@@H](O)C[C@@H](Cc1ccccc1)C(=O)N[C@H]1c2ccccc2C[C@H]1O` the Potency was active: 10.7 µM. For `OCCC1CN(Cc2cccn2-c2ncccn2)CCN1CCc1ccccc1` (stereo not given), the “activity change, negative = inhibition” value was inactive: -25.4%. With `CC(C)(C)Cc1nnc(NS(=O)(=O)c2ccc([N+](=O)[O-])cc2)s1` the Potency was inconclusive [inhibitor, full curve]. With `CCCCNC(=O)CSc1nc2ccc(C)cc2[nH]1` the “activity change, negative = inhibition” value was inactive: 6.64%. With `CC1CCCN(c2nc3nonc3nc2N2CCCC(C)C2)C1` (stereo not given) the Potency was active: 10.4 µM. For `COc1ccccc1CNC(=O)CNC(=O)N1CC(=O)Nc2ccccc21`, the “activity change, negative = inhibition” value was inactive: 3.67%. In the case of `COc1ccc(N/N=C(\C#N)C(=N)SCc2ccccc2)cc1`, the Potency is reported as inconclusive [inhibitor, single point]. With `COc1ccc(Cl)cc1NC(=O)CN(C)C(=O)c1ccc(COc2ccccc2)cc1` the Potency was inconclusive [inhibitor, single point]. For `Nc1c(C(=O)N2CCCC2)sc2nc(-c3ccccc3)ccc12`, the “activity change, negative = inhibition” value was inactive: 135%. With `O=C(NCc1ccccc1)c1csc(-c2cccnc2)n1` the Potency was active: 9.28 µM. In the case of `CNc1nc(CCN2C(=O)c3ccccc3C2=O)cs1`, the Potency is reported as inconclusive [inhibitor, full curve, poor fit]. In the case of `Cc1ccc(-c2nn(-c3ccccc3)c3[nH]c(=O)c(CNCCN(C)C)cc23)cc1`, the Potency is reported as active: 4.65 µM. For `COc1ccc(C)cc1NC(=O)c1cc(-c2ccccc2)nc2c1cnn2C(C)C`, the Potency was active: 4.65 µM. In the case of `C=CCNCC(=O)Nc1sc2c(c1C(=O)Nc1ccc(OC)cc1OC)CCC2`, the Potency is reported as active: 11.7 µM. In the case of `Cc1ccc(S(=O)(=O)NCCC(=O)NCCOc2ccccc2)cc1`, the Potency is reported as inconclusive [inhibitor, partial curve, poor fit]. For `Cc1cc(O)c2c(CN3CCN(Cc4ccccc4)CC3)cc(=O)oc2c1`, the Potency was inconclusive [inhibitor, partial curve]. In the case of `Cc1cccc(Nc2cc(Cl)nc(SCC(=O)O)n2)c1C`, the “activity change, negative = inhibition” value is reported as inactive: -6.59%. For `Cn1c(N)c(C(=O)CSc2nnc(-c3cccs3)n2C2CC2)c(=O)[nH]c1=O`, the “activity change, negative = inhibition” value was inactive: -0.693%. For `Cc1c(/C=N/NC(=O)c2cccs2)c2ccccc2n1Cc1ccccc1Cl`, the Potency was inconclusive [inhibitor, partial curve]. For `COc1ccccc1CN1CCN(C(=O)c2ccco2)CC1`, the “activity change, negative = inhibition” value was inactive: 25.2%. With `CCCc1cc(N2CCCC(C(=O)Nc3c(OC)cccc3OC)C2)n2ncnc2n1` (stereo not given) the Potency was inconclusive [inhibitor, partial curve]. With `CCOc1ccc(S(=O)(=O)N2CCCC(C(=O)N3CCC(C(N)=O)CC3)C2)cc1Cl` (stereo not given) the “activity change, negative = inhibition” value was inactive: -29.6%. With `CCN(CC(=O)Nc1ccccc1C(F)(F)F)C(=O)c1cc(S(=O)(=O)N2CCCCCC2)ccc1OC` the Potency was inconclusive [inhibitor, single point]. In the case of `Cc1cc(C)cc(NC(=O)CSc2nc3ccccc3nc2N2CCCCC2)c1`, the Potency is reported as inconclusive [inhibitor, partial curve, poor fit]. In the case of `c1ccc(-c2nc3nonc3nc2-c2ccccc2)cc1`, the Potency is reported as active: 11.7 µM. In the case of `CCOc1ccc(C(=O)NCC(=O)NCC(c2ccc(OC)cc2)N2CCOCC2)cc1OCC` (stereo not given), the “activity change, negative = inhibition” value is reported as inactive: -8.24%. For `COc1ccc(OC)c(N=C2SCCCN2C(=O)c2ccc(N3C(=O)CCC3=O)cc2)c1`, the “activity change, negative = inhibition” value was inactive: -27.8%. For `CC(CCc1ccccc1)NC(=O)CCNC(=O)Cn1ccc2ccccc2c1=O` (stereo not given), the “activity change, negative = inhibition” value was inactive: 3.1%. With `COc1ccc(N(C)S(=O)(=O)c2ccc(Cl)c(C(=O)NCCc3ccc(Cl)cc3)c2)cc1` the Potency was inconclusive [inhibitor, single point]. With `COc1ccccc1/C=C/CN1CCN(Cc2ccc(F)cc2)C(CCO)C1` (stereo not given) the Potency was inconclusive [inhibitor, full curve]. For `COc1ccc(-c2nc3ccc(C(=O)NCCCN4CCOCC4)cc3nc2-c2ccc(OC)cc2)cc1`, the Potency was inconclusive [inhibitor, partial curve]. For `C/C(=N/Nc1ccc([N+](=O)[O-])cc1)c1c[nH]c2ccccc12`, the “activity change, negative = inhibition” value was inactive: 1.13%. With `COc1ccc(N=C2SC(CC(=O)Nc3ccccc3F)C(=O)N2Cc2ccco2)cc1` (stereo not given) the Potency was inconclusive [inhibitor, single point]. For `Cc1cc[n+](CC(=O)Nc2cccc(C)c2)cc1`, the Potency was inconclusive [inhibitor, full curve, poor fit]. With `CCN(CC)S(=O)(=O)c1ccc(N2CCc3ccccc3C2)nc1` the Potency was inconclusive [inhibitor, partial curve]. For `COC(=O)C(C(=O)OC)C(C(=O)OC)C(C(=O)OC)C(=O)OC`, the “activity change, negative = inhibition” value was inactive: 17.9%. In the case of `COCCN1CCN(C(=O)c2cc(COc3ccc(F)cc3Cl)on2)CC1`, the “activity change, negative = inhibition” value is reported as inactive: 5.96%. In the case of `O=C(N/N=C/c1ccc([N+](=O)[O-])o1)c1ccc(O)cc1`, the Potency is reported as active: 1.65 µM. With `CCOc1ccc(C(=O)COC(=O)C2CCN(c3ccc(C(F)(F)F)cn3)CC2)cc1` the “activity change, negative = inhibition” value was inactive: -18.7%. In the case of `Cn1nc(-c2ccc(Cl)cc2)nc2c(=O)n(C)c(=O)nc1-2`, the Potency is reported as inconclusive [inhibitor, full curve]. With `Fc1ccc(CSc2nncn2NCc2ccccc2)cc1` the Potency was inconclusive [inhibitor, single point]. In the case of `Cc1cc(C(=O)Nc2cnn(Cc3ccc(Cl)cc3Cl)c2)no1`, the Potency is reported as active: 4.15 µM. In the case of `C=CCN(c1ccccc1)S(=O)(=O)c1ccc(Cl)c(C(=O)OCC(=O)N(C)C2CCS(=O)(=O)C2)c1` (stereo not given), the “activity change, negative = inhibition” value is reported as inactive: -6.61%. In the case of `NS(=O)(=O)c1ccc(NC(=O)COC(=O)c2c3c(nc4ccccc24)/C(=C\c2ccc4c(c2)OCO4)CCC3)cc1`, the Potency is reported as inconclusive [inhibitor, partial curve, poor fit]. In the case of `CCOC(=O)[C@H]1[C@H]2COc3ccc(OC)cc3[C@@H]2N2C(=O)c3cc(OC)ccc3NC(=O)[C@@]12C`, the Potency is reported as active: 10.4 µM. With `COc1ccc(CCNC(=O)c2nnn(-c3cc(C)cc(C)c3)c2N)cc1OC` the Potency was inconclusive [inhibitor, single point]. For `C(=C\c1nnc2c3ccccc3ncn12)/c1ccccc1`, the “activity change, negative = inhibition” value was inactive: 129%. With `O=C(C1=C(O)C(=O)N(CCN2CCOCC2)C1c1ccccn1)c1cccs1` (stereo not given) the “activity change, negative = inhibition” value was inactive: 14.6%. In the case of `COc1ccc2c3c([nH]c2c1)C1(NCC3)C(=O)Nc2ccccc21` (stereo not given), the Potency is reported as inconclusive [inhibitor, single point]. In the case of `CCOC(=O)c1ccn(-c2nc(-c3ccco3)cc(C(F)(F)F)n2)n1`, the Potency is reported as inconclusive [inhibitor, single point]. For `O=C(c1ccccc1)c1c[nH]c(C(=O)NNc2cccc(Cl)n2)c1`, the Potency was inconclusive [inhibitor, single point]. With `CCCCOc1ccc(-c2nnn(CC(=O)NCCc3c[nH]c4ccccc34)n2)cc1` the Potency was inconclusive [inhibitor, single point]. For `COC(=O)CCC(=O)c1oc2ccc(Cl)cc2c1NC(=O)CCCN1C(=O)c2ccccc2C1=O`, the Potency was inconclusive [inhibitor, single point]. With `CCc1ccc(C2=NN(CCC(=O)NC(C)CCc3ccccc3)C(=O)CC2)cc1` (stereo not given) the Potency was inconclusive [inhibitor, partial curve]. For `O=C(N/N=C/c1cc(Cl)ccc1O)c1ccc(Br)cc1`, the Potency was inconclusive [inhibitor, partial curve]. For `Cc1oc2c(O)c(O)ccc2c(=O)c1-c1ccc(Cl)cc1`, the Potency was inconclusive [inhibitor, single point].

Reference: PubChem BioAssay AID504832 (National Center for Advancing Translational Sciences (NCATS), 2011)
On the % scale 0 is the no-effect control and ±100 the full control effect; potency means the concentration at half of the fitted maximal effect; tags describe the fitted curve by direction and shape.
